# Publication PMC13083723 (Patterns, 2026)
# In all, about 5,400 compounds went through this assay and about 190 (3.5%) showed an effect of 50% or more. The list shows a part of the results. Residues, ends and D or L forms follow the SMILES beside them.
# Tested on: Vero-E6
# Assay: primary screen, phospholipidosis by LipidTOX staining; higher = more effect of the substance
# Conditions: 10 µM
# How it was run: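 Drug-induced phospholipidosis detected with HCS LipidTOX Red reagent in Vero-E6 cells. Compounds tested at 10 μM, with amiodarone (10 μM) as positive control and DMSO (0.1 v/v %) as vehicle.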
row,SMILES,result_ITMP [%]
1,CCc1cc2c(cc1CC)CC(NC[C@H](O)c1ccc(O)c3[nH]c(=O)ccc13)C2,0.13
2,c1cc(CN2CCCCC2)cc(OCCCNc2nc3ccccc3s2)c1,32.9
3,CCn1c2ccccc2c2cc(CNC)ccc21,73.3
4,Cc1c(-c2ccc(O)cc2)n(Cc2ccc(OCCN3CCCCCC3)cc2)c2ccc(O)cc12,57.2
5,CCOC1O[C@H]([C@@H](COCc2ccccc2)OCc2ccccc2)[C@H](OCc2ccccc2)[C@H]1O (stereo partly drawn),-9.88
6,C=C[C@]1(C)C[C@@H](OC(=O)CSC(C)(C)CNC(=O)[C@H](N)C(C)C)[C@]2(C)[C@H](C)CC[C@]3(CCC(=O)[C@H]32)[C@@H](C)[C@@H]1O,22
7,CC1(C)S[C@@H]2[C@H](NC(=O)COc3ccccc3)C(=O)N2[C@H]1C(=O)[O-],-2.47
8,Cc1cc(Nc2cc(N3CCN(C)CC3)nc(Sc3ccc(NC(=O)C4CC4)cc3)n2)n[nH]1,8.23
9,Clc1ccc2nsnc2c1NC1=NCCN1,0.86
10,CC(C)N1CCN(c2ccc(C(=O)c3c(-c4ccc(O)cc4)sc4cc(O)ccc34)cc2)CC1,-7.16
11,Cc1cc2cc3c(C)cc(=O)oc3c(C)c2o1,-5.78
12,CC(=O)Nc1c(I)cc(I)c(C(=O)O)c1I,0.28
13,CCCCOc1ccc(C(=O)Nc2ccc(F)cc2F)cc1,-8.12
14,Nc1nc(OCc2cc(Br)cs2)c2[nH]cnc2n1,-7.63
15,CC(=O)Nc1nnc(S(N)(=O)=O)s1,1.15
16,CC(C)Oc1ccc2c(=O)c(-c3ccccc3)coc2c1,-4.93
17,O=C(CCCl)NCCc1ccccc1,4.22
18,N[C@H]1CC[C@H](N[C@@H]2C[C@H]2c2ccccc2)CC1,65.7
19,NC1(Cc2ccc(Cl)cc2)CCN(c2ncnc3[nH]ccc23)CC1,37.1
20,CC(C)(C)c1cc(O)c(C(C)(C)C)cc1O,0.77
21,CC(C)c1ccccc1S(=O)(=O)c1cc(N)c2ncccc2c1[N+](=O)[O-],-1.12
22,C[N+]1(CC2CC2)[C@@H]2C[C@@H](OC(=O)[C@H](CO)c3ccccc3)C[C@H]1[C@@H]1O[C@@H]12 (stereo partly drawn),7.9
23,Cc1ccc(S(=O)(=O)Nc2nc3ccccc3nc2Nc2ccc3nsnc3c2)cc1,-6.5

row,SMILES,result_ITMP [%]
1,CCC(C)c1ccc(NC(=O)Cn2cnc3c2c(=O)n(C)c(=O)n3C)cc1 (stereo not drawn),-1.59
2,CCOC(=O)C1=C(N)Oc2ccc(Br)cc2C1C(C#N)C(=O)OCC (stereo not drawn),0.34
3,CCCCN(CC)c1nc(C)nc2c1c(C)c(C)n2-c1c(C)cc(C)cc1C,-0.39
4,N#C/C(=C1/SC[C@@H](c2ccc(Cl)cc2Cl)S1)n1ccnc1,-11.6
5,COc1cc([C@H]2Oc3cc([C@H]4Oc5cc(O)cc(O)c5C(=O)[C@@H]4O)ccc3O[C@@H]2CO)ccc1O,-5.32
6,CC(C)C(=O)Nc1ncc(-c2cc(C(F)F)nn2-c2c(Cl)cccc2Cl)s1,2.21
7,C/C=C(/C)C(=O)O[C@H]1C(C)=C[C@]23C(=O)[C@@H](C=C(CO)[C@@H](O)[C@]12O)[C@H]1[C@@H](C[C@H]3C)C1(C)C,0.09
8,CCCCOc1cc(C(=O)OCCN(CC)CC)ccc1N,18.9
9,O=S(=O)(O)c1ccc2[nH]c(-c3ccccc3)nc2c1,-0.79
10,Cc1nc2n(c(=O)c1CCN1CCC(c3noc4cc(F)ccc34)CC1)CCC[C@H]2O,-1.97
11,C[C@@H](N)Cc1c[nH]cn1,-1.95
12,CC1(C)C(=O)N(c2ccc(C#N)c(C(F)(F)F)c2)C(=O)N1CCCCO,-0.89
13,CC(C)(C)c1ccc(NC(=O)N2CCN(c3ncccc3Cl)CC2)cc1,-2.26
14,O=C(/C=C/c1ccc(O)c(O)c1)O[C@H](Cc1ccc(O)c(O)c1)C(=O)O,-3.9
15,NC(=O)C1CCCc2c1[nH]c1ccc(Cl)cc21 (stereo not drawn),-0.07
16,Cc1cccc(C)c1-n1c(=O)c2cnc(Nc3ccc(N4CCN(C)CC4)cc3)nc2n2c3ccccc3nc12,81.7
17,CCS(=O)(=O)c1cccc(-c2cc(C(=O)NC3CCN(C)CC3)c(C)c3[nH]c4ncc(C)cc4c23)c1,5.5
18,COC(=O)[C@H](Cc1ccccc1)NC(=O)[C@@H](N)CC(=O)O (H-Asp-Phe-OMe),-3.16
19,C[C@H]1CC[C@@]2(OC1)O[C@H]1C[C@H]3[C@@H]4CC[C@@H]5C[C@@H](O)CC[C@]5(C)[C@H]4CC[C@]3(C)[C@H]1[C@@H]2C,-0.15
20,NC(=O)N/N=C/c1ccc(Oc2ccc(F)cc2)cc1,-8.28
21,O=C(O)C[C@H]1CC[C@H](c2ccc(-c3ccc(Nc4ccc(C(F)(F)F)nc4)cn3)cc2)CC1,1.52
22,CNC(=O)[C@@H](NC(=O)[C@H](CC(C)C)[C@H](O)C(=O)NO)C(C)(C)C,-6.67
23,COc1cc(CNC(=O)CCCC/C=C/C(C)C)ccc1O,-0.3

row,SMILES,result_ITMP [%]
1,Clc1ccc(C2(c3ccc(-c4cn[nH]c4)cc3)CCNCC2)cc1,96.9
2,O=C(NCCCN1CCOCC1)c1ccc(Cl)cc1,-4.05
3,COc1ccc(-c2cc(=O)c3c(O)c(OC)c(O)cc3o2)cc1OC,-1.14
4,O=C(O)c1c2ccccc2cc2ccccc12,-1.81
5,Cc1cc(Oc2ccc3nc(COc4ccc(CC5SC(=O)NC5=O)cc4)n(C)c3c2)cc(C)c1N (stereo not drawn),-0.04
6,C=C[C@](C)(O)CC[C@@H]1[C@@]2(C)CCCC(C)(C)[C@@H]2CC[C@@]1(C)O,-0.29
7,C=CCN.ClCC1CO1 (stereo not drawn),-4.42
8,CC1(C)CN(C(=O)c2ccc(-c3cccc4nc(NC(=O)C5CC5)nn34)cc2)C1,-2.5
9,FC(F)(F)c1cccc(C2=CCN(CCc3ccc4ccccc4c3)CC2)c1,-1.88
10,Cc1cc(C)c(S(=O)(=O)Nc2cccc(C(F)(F)F)c2)c(C)c1,-1.98
11,CCN(CC)CCOCCOC(=O)C(CC)(CC)c1ccccc1,39
12,CCCOc1ccc(C(=O)OCCN(CC)CC)cc1N,9
13,Nc1nc2c(ncn2CCC(CO)CO)c(=O)[nH]1,3.08
14,CCOC(=O)[C@H](Cc1ccccc1)NC(=O)c1cc(Cl)c(OCCN2CCN(C)CC2)c(Cl)c1O,-2.45
15,COC(=O)Nc1ccc2[nH]cc(CCNC(C)=O)c2c1,-2.02
16,Nc1ncnc2c1c(COc1cccc(Cl)c1)nn2C1CCOCC1,-4.63
17,CC(C)[N+]1(C)C2CC[C@H]1C[C@@H](OC(=O)C(CO)c1ccccc1)C2 (stereo partly drawn),-3.79
18,CC[C@@H](CO)NCCN[C@@H](CC)CO,-1.3
19,CCN(CC)CCCCNc1ncc2cc(-c3cc(OC)cc(OC)c3)c(NC(=O)NC(C)(C)C)nc2n1,90.1
20,CC(CN(C)C)C(C)(O)Cc1ccc(Cl)cc1 (stereo not drawn),8.83
21,C=CCN1CC[C@]23CCCC[C@H]2[C@H]1Cc1ccc(O)cc13,0.64
22,C[C@]1(Cn2ccnn2)[C@H](C(=O)O)N2C(=O)C[C@H]2S1(=O)=O,-1.32
23,O=c1ccc2[nH]cc(C3=CCNCC3)c2[nH]1,-1.73

row,SMILES,result_ITMP [%]
1,CC(=O)OCC(=O)[C@@]1(OC(C)=O)[C@@H](C)C[C@H]2[C@@H]3C[C@H](F)C4=CC(=O)C=C[C@]4(C)[C@@]3(F)[C@@H](O)C[C@@]21C,-3.46
2,C#C[C@]1(OC(C)=O)CCC2C3CCC4=C/C(=N/O)CCC4C3CC[C@@]21CC (stereo partly drawn),1.9
3,CC(C)C[C@H](NC(=O)CNC(=O)c1cc(Cl)ccc1Cl)B1OC(=O)C(CC(=O)O)(CC(=O)O)O1,-2.06
4,O=C(NCCN1CCCCC1)c1ccc(I)cc1,12.3
5,CC1(C)Oc2ccc(C#N)cc2[C@@H](N2CCCC2=O)[C@@H]1O.CC1(C)Oc2ccc(C#N)cc2[C@H](N2CCCC2=O)[C@H]1O,-2.09
6,CC1=C(/C=C/C(=C/C=C/C(C)=C/C(=O)O)c2ccc(C)cc2)C(C)(C)CCC1,-5.87
7,CC(=O)Nc1cc([As](=O)(O)O)ccc1O,-8.7
8,C=CCOC(Cn1ccnc1)c1ccc(Cl)cc1Cl (stereo not drawn),14.2
9,Cc1cc2c(C(C)C)c(O)c(O)c(C=O)c2c(O)c1-c1c(C)cc2c(C(C)C)c(O)c(O)c(C=O)c2c1O,-13.8
10,C[N+]1(C)C2CC[C@H]1C[C@@H](OC(=O)C(O)c1ccccc1)C2 (stereo partly drawn),-3.36
11,CCC[C@@]1(CCc2ccccc2)CC(O)=C([C@H](CC)c2cccc(NS(=O)(=O)c3ccc(C(F)(F)F)cn3)c2)C(=O)O1,-0.63
12,CCCCC(=O)NCCc1c(Cc2ccccc2)[nH]c2ccccc12,-4.15
13,O=[N+]([O-])O[C@@H]1CO[C@H]2[C@@H]1OC[C@@H]2O,-9.17
14,O=C(O)/C=C/CO,-4.68
15,C[C@@H]1COC(Nc2ccc3ncnc(Nc4ccc(OCc5nccs5)c(Cl)c4)c3c2)=N1,9.37
16,Cn1cc(-c2ccc3c(c2)CCN3C(=O)Cc2cccc(C(F)(F)F)c2)c2c(N)ncnc21,-0.76
17,Oc1cccc(-c2nc(N3CCOCC3)c3oc4ncccc4c3n2)c1,-1.98
18,O=c1[nH]c2ccccc2n1C1CCN(CCCC(c2ccc(F)cc2)c2ccc(F)cc2)CC1,28.9
19,Fc1ccc(-c2c3cccc(C(F)(F)F)c3nn2Cc2ccc(F)cc2Cl)cc1,-0.88
20,Cc1cc(SCc2sc(-c3ccc(C(F)(F)F)cc3)nc2C)ccc1OCC(=O)O,0.61
21,CC(=O)OCC(=O)[C@H]1CC[C@H]2[C@@H]3CCC4=CC(=O)CC[C@]4(C)[C@H]3CC[C@]12C,1.95
